Lines with a small IC50 respond at low doses; fits outside the tested doses are given as limits. For AUC the same curve is integrated over the 256-fold range of doses and scaled to a fraction; values near 1 show little effect. The top dose, if marked as inferred, is not printed in the source and was worked back from the curve model.
compound: CCn1cc(-c2ccnc3[nH]c(-c4cccc(CN(C)C)c4)cc23)c(-c2ccc(NC(=O)N(C)C)cc2)n1 [GSK1070916]; assay: Viability of human cancer cell lines after 72 h of drug (GDSC screen); conditions: top dose inferred
Description: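 Human cancer cell lines in 384-well plates, medium with 10% serum, drug for 72 h over a 256-fold dose range (nine 2-fold or five 4-fold steps up to the top dose). Adherent lines were fixed and stained with the nucleic acid dye Syto60, suspension lines read with resazurin; signal relative to control wells, capped at 0 and 100%. One two-parameter sigmoid per drug and line, fitted in a mixed model over all curves with the slope shared within a line.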

Cell Line	AUC	IC50 [nM]
KY821 (leukaemia, suspension, top dose 2.56 µM)	0.942	> 2560
KYSE-70 (oesophagus, adherent, top dose 2.56 µM)	0.965	> 2560
HD-MY-Z (Hodgkin lymphoma, adherent, top dose 2.56 µM)	0.862	2210
AU565 (breast, adherent, top dose 2.56 µM)	0.978	> 2560
CTB-1 (B-cell lymphoma, suspension, top dose 2.56 µM)	0.959	> 2560
ASH-3 (thyroid, adherent, top dose 2.56 µM)	0.988	> 2560
SU8686 (pancreas, adherent, top dose 2.56 µM)	0.976	> 2560
NCI-H2228 (lung adenocarcinoma, adherent, top dose 2.56 µM)	0.911	> 2560
PA-1 (ovary, adherent, top dose 2.56 µM)	0.744	659
NB14 (neuroblastoma, adherent, top dose 2.56 µM)	0.949	> 2560
KARPAS-45 (lymphoblastic leukaemia, suspension, top dose 2.56 µM)	0.079	< 10
BC-1 (B-cell lymphoma, suspension, top dose 2.56 µM)	0.543	206
SUP-M2 (anaplastic large cell lymphoma, suspension, top dose 2.56 µM)	0.216	30.9
FU97 (stomach, adherent, top dose 2.56 µM)	0.969	> 2560
BV-173 (chronic myeloid leukaemia, suspension, top dose 2.56 µM)	0.066	< 10
RO82-W-1 (thyroid, adherent, top dose 2.56 µM)	0.983	> 2560
COLO-829 (melanoma, adherent, top dose 2.56 µM)	0.959	> 2560

Cell Line	AUC	IC50 [nM]
HC-1 (hairy cell leukaemia, suspension, top dose 2.56 µM)	0.838	1640
CAS-1 (glioma, adherent, top dose 2.56 µM)	0.943	> 2560
MEL-JUSO (melanoma, adherent, top dose 2.56 µM)	0.879	> 2560
D-423MG (glioma, adherent, top dose 2.56 µM)	0.857	> 2560
EPLC-272H (lung squamous cell carcinoma, adherent, top dose 2.56 µM)	0.49	150
COR-L105 (lung adenocarcinoma, adherent, top dose 2.56 µM)	0.896	> 2560
DoTc2-4510 (cervix, adherent, top dose 2.56 µM)	0.978	> 2560
LS-411N (large intestine, adherent, top dose 2.56 µM)	0.73	849
KYSE-520 (oesophagus, adherent, top dose 2.56 µM)	0.935	> 2560
U-2-OS (osteosarcoma, adherent, top dose 2.56 µM)	0.95	> 2560
WSU-NHL (lymphoid neoplasm, suspension, top dose 2.56 µM)	0.842	1490
KMRC-1 (kidney, adherent, top dose 2.56 µM)	0.987	> 2560
Ca-Ski (cervix, adherent, top dose 2.56 µM)	0.485	145
A375 (melanoma, adherent, top dose 2.56 µM)	0.784	888
OVISE (ovary, adherent, top dose 2.56 µM)	0.888	> 2560
ONS-76 (medulloblastoma, adherent, top dose 2.56 µM)	0.804	1400

From the supplement of paper PMC4967469
